# Several values for one entry are separate records, joined by “and”; a condition that tells them apart may be missing. Equal values may be shown once. The whole screen tested about 420,000 compounds, of which about 64,000 (15%) were called active. The shares of active, inactive and inconclusive entries below differ from those in the screen. Calls follow the shape of the dose curve; as a rule, active = well fitted inhibition curve with a large enough effect; inconclusive = small, poorly fitted or top-dose-only effect; inactive = flat fitted curve, though single readings scatter. Potencies of inconclusive entries are left out as doubtful fits. Peptide text beside a SMILES is read from it.
# Assay: qHTS for Inhibitors of human tyrosyl-DNA phosphodiesterase 1 (TDP1): qHTS in cells in absence of CPT; also: nearly all actives have a fitted effect of over 55% in size
# Details: DT40 Tdp1-/- hTDP1 cells, no CPT, ATP luminescence, 48 h; activity change, negative = growth inhibition: at 46.2 µM (top of the series) unless noted
# In short: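 Growth kinetics read by CellTiter-Glo luminescence after ≥48 hr at 37 °C. Cells: DT40 Tdp1-/- stably carrying human TDP1, 400 per well, compound exposure in the absence of CPT (DMSO vehicle).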
# % is scaled to controls: 0 for no effect and ±100 for the full control effect; potency is read from the fitted curve at half-maximal effect; tags tell the direction and shape of the fitted curve.
Structure (SMILES),Potency,"activity change, negative = growth inhibition"
CC(=O)c1cccc(NC(=O)/C=C/c2ccc([N+](=O)[O-])s2)c1,active: 1.46 µM,–
CCOc1ccccc1N(CC(=O)NCCSCc1ccco1)S(=O)(=O)c1ccccc1,"inconclusive [inhibitor, single point]",–
COc1ccc(CNC(=O)C2=CCN(S(=O)(=O)c3ccc(C)cc3)CC2)cc1,inactive,–
COC(=O)C1Cc2ccccc2CN1S(=O)(=O)c1ccc(C)cc1 (stereo not drawn),"inconclusive [inhibitor, single point]",–
O=[N+]([O-])c1cc(/C=N/O)ccc1Oc1cccc(Cl)c1,inactive,–
COc1cccc(NC(=O)C2CCN(S(=O)(=O)c3ccc(N4CCCC4=O)cc3)CC2)c1,"inconclusive [inhibitor, partial curve, poor fit]",–
Cc1ccc(-c2csc3nnc(SCC(=O)Nc4cccc(C)n4)n23)cc1,"inconclusive [inhibitor, single point]",–
Cc1ccc(S(=O)(=O)Cc2ccc(C(=O)N3CCN(c4cccc(C)c4C)CC3)o2)cc1,active: 651 nM and active: 2.59 µM,–
CCOc1ccccc1NC(=S)NC1CCCCC1,–,inconclusive: -33.9% [inhibitor]
COC(=O)C(C#N)c1nc2ccccc2nc1N1CCCC1 (stereo not drawn),"inconclusive [inhibitor, single point]",–
O=C(CNC(=O)c1ccc(Br)cc1)OC1CCOC1=O (stereo not drawn),inactive,–
CCOC(=O)N1CCN(C(=O)c2ccc3oc(CCc4ccccc4)nc3c2)CC1,"inconclusive [inhibitor, single point]",–
O=[N+]([O-])c1cc(-c2nc(-c3ccccc3)no2)ccc1N1CCCCC1,"inconclusive [inhibitor, single point]",–
CN(C)P(=NC(=O)COc1ccc(Cl)cc1Cl)(N(C)C)N(C)C,"inconclusive [inhibitor, single point]",–
CC1CCCC(N2CCN(C(=O)c3ccc(F)cc3)CC2)C1 (stereo not drawn),inactive,–
CN(C)C(=O)c1ccc(-c2nc(Nc3ccc(F)cc3)c3ccccc3n2)cc1,active: 23.1 µM,–
Fc1ccc(C2CC(c3ccccc3)n3ncnc3N2)cc1 (stereo not drawn),inactive,–
CCC(=O)N1CCc2cc(Br)cc(S(=O)(=O)CCC(=O)N3CCN(c4cccc(C(F)(F)F)c4)CC3)c21,"inconclusive [inhibitor, single point]",–
Cc1ccc(/C=C2\SC(=S)N(NS(=O)(=O)c3ccc(C)cc3)C2=O)cc1,inactive,–
CN1CCN/C1=C(/C(Cl)=C(Cl)Cl)[N+](=O)[O-],active: 23.1 µM,–
Cc1ccc(C(NC(=O)Nc2ccccn2)C(Cl)(Cl)Cl)cc1F (stereo not drawn),active: 20.6 µM,–
C(=N\N1CCN(C(c2ccccc2)c2ccccc2)CC1)/c1ccc2c(c1)OCO2,"inconclusive [inhibitor, partial curve]",–
COc1ccc(OC)c(C2=Nn3c(nnc3-c3ccco3)SC2)c1,"inconclusive [inhibitor, partial curve]",–
O=C(COC(=O)Cc1ccc(F)cc1)NC(=O)NC1CCCC1,inactive,–
Cc1c(C)n2c(SCC(=O)NC3CCCC3)nnc2[nH]c1=O,inactive,–

Structure (SMILES),Potency,"activity change, negative = growth inhibition"
c1ccc(N2CCN(c3ccccc3)C2c2cccnc2)cc1,"inconclusive [inhibitor, partial curve, poor fit]",–
CCc1c(C)sc(NC(=O)c2noc(C)c2[N+](=O)[O-])c1C#N,"inconclusive [inhibitor, single point]",–
COc1ccc(OC)c(S(=O)(=O)N(C)CC(=O)N2CCN(c3ccc(F)cc3)CC2)c1,inactive,–
COc1ccc(N=Nc2ccc(O)c(P(=O)(c3ccccc3)c3ccccc3)c2)cc1,"inconclusive [inhibitor, single point]",–
COc1ccc(OC)c(N=C(C)C2=C(O)COC2=O)c1,"inconclusive [inhibitor, single point]",–
"CC[C@H](C)[C@@H]1NC(=O)[C@@H](CC(C)C)NC(=O)[C@H](C(C)C)NC(=O)[C@H]2CSSC[C@H](NC1=O)C(=O)N2 (HELM PEPTIDE1{C.[dC].V.[dL].I}$PEPTIDE1,PEPTIDE1,1:R3-2:R3|PEPTIDE1,PEPTIDE1,1:R1-5:R2$$$V2.0)",active: 0.0326 µM,–
c1ccc(C(c2nnnn2Cc2ccco2)N2CCN(C3CCCC3)CC2)cc1 (stereo not drawn),"inconclusive [inhibitor, full curve, poor fit]",–
COc1ccc(OC)c(-n2cnnn2)c1,–,inconclusive: -31.6% [inhibitor]
CC(C)Cn1c(N)c(S(=O)(=O)c2cccs2)c2nc3ccccc3nc21,"inconclusive [inhibitor, single point]",–
COCc1c(C(=O)OC/C(O)=C(\C#N)c2nc3ccccc3[nH]2)oc2ccccc12,"inconclusive [inhibitor, single point]",–
CCCC(=O)Nc1cc(C(=O)O)ccc1Sc1ccccc1,inactive,–
O=C(NC1CC1)C1=C[C@H](c2coc3ccccc3c2=O)C[C@H](OCCCCO)O1,inactive,–
O=C(CNc1cccc2ccccc12)N/N=C/c1cccc(Oc2ccccc2)c1,active: 25.9 µM,–
CCCCCCN1C[C@H](n2cc(COC(=O)c3ccccc3)nn2)[C@@H](O)C[C@@H]1c1ccc(OC)cc1,"inconclusive [inhibitor, single point]",–
COc1cccc(NC(=O)C(C)Oc2ccccc2)c1 (stereo not drawn),inactive,–
O=C(Cn1c(=O)n(Cc2ccco2)c(=O)c2ccccc21)Nc1ccc(Cl)cc1Cl,"inconclusive [inhibitor, partial curve]",–
CCn1nnnc1NCc1ccc(SC)cc1,inactive,–
CN(C)CCN(C(=O)c1ccc2ccccc2c1)c1nc2cc3c(cc2s1)OCO3,active: 23.1 µM,–
Cc1c(Cl)cccc1NC(=O)c1cccc(OC(F)F)c1,"inconclusive [inhibitor, single point]",–
CC(C)CCC(O)(c1ccccc1)C(CN1CCOCC1)c1ccccc1 (stereo not drawn),active: 16.4 µM,–
O=C(COc1ccccc1-c1ccccc1)NCc1ccco1,inactive,–
COC(=O)c1ccc(NC(=O)c2ccc(C)cc2)o1,"inconclusive [inhibitor, partial curve]",–
Cc1cccc(NC(=S)N2CCN(c3cc(C)ccc3C)CC2)c1,"inconclusive [inhibitor, single point]",–
O=C(Cn1c(=O)ccc2cc(S(=O)(=O)N3CCCC3)ccc21)NCc1ccc(Cl)cc1,"inconclusive [inhibitor, single point]",–
COc1cc(-c2noc(-c3ccc(N4CCN(C)CC4)c([N+](=O)[O-])c3)n2)cc(OC)c1OC,active: 3.26 µM,–

Structure (SMILES),Potency,"activity change, negative = growth inhibition"
O=C(NCCC1=CCCCC1)C1CCC(CNS(=O)(=O)c2ccccc2)CC1 (stereo not drawn),"inconclusive [inhibitor, partial curve, poor fit]",–
O=C(CCNC(=O)c1ccccc1Cl)NCCCSc1ccccc1,"inconclusive [inhibitor, single point]",–
Cc1cc(C)n(-c2cc(N3CCN(C(=O)c4ccc(C(C)(C)C)cc4)CC3)ccc2[N+](=O)[O-])n1,"inconclusive [inhibitor, single point]",–
CCOCCn1c(=NC(=O)CSCC(=O)N2CCOCC2)sc2cc(OC)ccc21,inactive,–
CCN(CC)S(=O)(=O)c1ccc2nc(NC(=O)c3cccnc3)sc2c1,"inconclusive [inhibitor, single point]",–
O=C(c1ccc(Cl)cc1)N1CCC(c2ccncc2)CC1,inactive,–
CCOC(=O)C1=C(COC(=O)COc2cccc(C)c2C)NC(=O)NC1C (stereo not drawn),inactive,–
CCc1c(C)sc(NC(=O)c2cc(-c3ccco3)on2)c1C#N,inactive,–
O=C(O)c1cc2c(ccc3ccccc32)o1,"inconclusive [inhibitor, single point]",–
COc1cc(C(=O)N2CCCCC2c2cc(C(=O)NC(C)C)no2)cc(OC)c1C (stereo not drawn),"inconclusive [inhibitor, single point]",–
CN(Cc1cnn(C)c1)Cc1nc(-c2ccc(Cl)cc2)no1,"inconclusive [inhibitor, single point]",–
CCOC(=O)c1cc(S(=O)(=O)NCc2ccccc2)[nH]n1,inactive,–
Cc1ccc(NC(=O)CSc2nnc(COc3ccc(C#N)cc3)n2-c2ccccc2)cc1C,"inconclusive [inhibitor, single point]",–
O=C(O)c1ccc(/C=C2/SC(=S)N(Cc3ccccc3)C2=O)cc1,inactive,–
CN(c1ccc(C(=O)NCCSCc2ccccc2)cc1)S(=O)(=O)c1ccccc1,"inconclusive [inhibitor, partial curve, poor fit]",–
COC(=O)CC1C(=O)NCCN1C(=O)c1ccc(Cl)cc1 (stereo not drawn),inactive,–
CCCCCCCc1c(C#N)c(N)[nH]c(=S)c1C#N,inactive,–
COc1cccc(-c2nnc3sc(C4CCCCC4)nn23)c1,active: 20.6 µM,–
CC#CCOCC1CN(C)C(=O)O1 (stereo not drawn),inactive,–
CCOc1ccc(S(=O)(=O)Nc2ccc(C(=O)N(CC)CC(=O)NCc3cccs3)cc2)cc1,"inconclusive [inhibitor, single point]",–
CC1=C(C#N)CCC(=O)N1Cc1ccc(C)cc1,"inconclusive [inhibitor, partial curve]",–
CCCSc1nc2sc3c(c2c(=O)n1-c1ccc(OC)cc1)CCN(C)C3,active: 14.6 µM,–
O=S1(=O)CC(N2CCC(Cc3ccccc3)CC2)CN1CCc1ccccc1 (stereo not drawn),active: 20.6 µM,–

# — PubChem BioAssay AID686978 (National Center for Advancing Translational Sciences (NCATS), 2013)
